# Laboratory results reported in PubChem BioAssay AID651820 (National Center for Advancing Translational Sciences (NCATS), 2012).
# Screen size: about 340,000 compounds; about 12,000 (3.5%) were called active. Inconclusive results, whose numbers are uncertain, are shown with a selection of clear calls. Calls follow the shape of the dose curve; as a rule, active = well fitted inhibition curve with a large enough effect; inconclusive = small, poorly fitted or top-dose-only effect, or another doubt; inactive = no such curve, though single readings can be large or run the other way. No potency is given beside an inconclusive call; the fits are too rough.
# Assay: qHTS Assay for Inhibitors of Hepatitis C Virus (HCV)
# Settings: Huh7.5.1 HCVcc-Cre (HCVcc is cell-culture hepatitis C virus) infection, luciferase reporter, 44 h; activity change, negative = inhibition: at 41.8 µM (top of the series) unless noted
# In short: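 Whole-lifecycle infectious HCVcc-Cre system; cells 1,000/well, compound then virus (~0.5 moi) added 4 h after plating, 44 h culture. Luciferase read 15 sec following 15 min substrate incubation, room temp.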
# % is scaled to controls: 0 for no effect and ±100 for the full control effect; potency is read from the fitted curve at half-maximal effect; tags tell the direction and shape of the fitted curve.
Structure (SMILES),Potency,"activity change, negative = inhibition"
COc1ccccc1N1CCN(C(=O)c2ccc(Cl)c(S(=O)(=O)NCc3ccco3)c2)CC1,active: 8.91 µM,–
CC(=O)n1cc(N(C(=O)CCl)c2ccccc2)c2ccccc21,active: 1 µM,–
Cc1cccc2[nH]c3c(N4CCN(C(=O)c5ccco5)CC4)ncnc3c12,–,inactive: -35.1%
COc1ccc(NC(=O)CSc2nnc(-c3ccccc3)n2Cc2ccco2)c(OC)c1,"inconclusive [inhibitor, partial curve]",–
O=C(Nc1nnc(SCC(=O)N2CCCC2)s1)C1CC(=O)N(c2ccc(F)cc2)C1 (configuration not stated),–,inactive: 4.52%
CNC(=S)N/N=C(\C)c1ccc(Cl)c(Cl)c1,"inconclusive [inhibitor, partial curve]",–
CN(C)S(=O)(=O)c1ccc(N2CCCC2)c(C(=O)NC2CCCCC2)c1,–,inactive: -0.0688%
COc1ccc2ccccc2c1/C=N\NC(=O)c1ccc(C)s1,active: 10 µM,–
C/C(=N/NC(=O)c1ccc(C)nc1)c1ccc2c(c1)CCCC2,–,inconclusive: -31.7% [inhibitor]
COc1ccc(NC(=O)n2ncc3c(C)cccc32)cc1,–,inactive: -28.2%
COc1cc(NC(=S)N2CCCC(CO)C2)c(OC)cc1Cl (configuration not stated),"inconclusive [inhibitor, partial curve]",–
Cc1ccc(SCCC(=O)NCCSCc2ccccc2C)cc1,–,inactive: 4.24%
O=C(Nc1ccccc1)N1N=CCC1c1ccccc1 (configuration not stated),–,inactive: -5.43%
Cc1ccc(-c2nn3c(C)nnc3s2)cc1NC(=O)c1ccc(-c2cccc(Cl)c2)o1,"inconclusive [inhibitor, partial curve]",–
Oc1ccccc1C(Nc1nccs1)c1ccc2cccnc2c1O (configuration not stated),active: 4.47 µM,–
CCc1ccc(C(c2c(C)nn(-c3ccccc3)c2N)c2c(C)nn(-c3ccccc3)c2N)cc1,"inconclusive [inhibitor, single point]",–
CC(=O)N1CCN=C1SCc1cccc(F)c1,–,inactive: -1.98%
CON=C(C(=O)NC1C(=O)N2C(C(=O)O)=C(CSc3nc(=O)c(=O)[nH]n3C)CSC12)c1csc(N)n1 (configuration not stated),"inconclusive [inhibitor, full curve, poor fit]",–
CCOC(=O)Cc1csc(NC(=O)/C=C/c2ccc(Cl)cc2)n1,active: 11.2 µM,–
COc1ccc(Nc2nccc(-c3cccc(N)c3)n2)cc1,"inconclusive [inhibitor, single point]",–
CCN(CCNc1ccc(Cl)cc1[N+](=O)[O-])C(=O)c1cc([N+](=O)[O-])c(N(C)C)cc1OC,"inconclusive [inhibitor, full curve, poor fit]",–
O=C(Nc1ccc2c(c1)OCCO2)C1CCCN1C(=O)Nc1ccc(F)cc1 (configuration not stated),–,inactive: 1.65%
